Source: the supplement of paper PMC8728848
The list shows a part of the results.

Experiments:
Assay in all cases: glycan array binding signal (z-score within array); higher = stronger binding
Settings in all cases: glycan notation: IUPAC condensed, linker removed
GlcA(b1-3)Gal = target: GlcA(b1-3)Gal
In short: (§1)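 Arrays were curated from the Consortium for Functional Glycomics database, 3228 in total, and kept only where the protein sequence was available. Binding is expressed as a within-array Z-score. This score was averaged across arrays of the same protein sequence at different concentrations or buffers and across linkers, and negative values can be read as non-binding.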

GlcA(b1-3)GlcNAc = target: GlcA(b1-3)GlcNAc
In short: as §1

GlcA(b1-6)Gal = target: GlcA(b1-6)Gal
In short: as §1

[1] = target: GlcA3S(b1-3)Gal(b1-4)GlcNAc(b1-2)Man
In short: as §1

[2] = target: GlcA3S(b1-3)Gal(b1-4)GlcNAc(b1-3)Gal(b1-4)Glc
In short: as §1

[3] = target: GlcNAc(a1-3)Gal(b1-4)GlcNAc
In short: as §1

[4] = target: GlcNAc(a1-4)Gal(b1-3)GlcNAc
In short: as §1

[5] = target: GlcNAc(a1-4)Gal(b1-4)GalNAc
In short: as §1

[6] = target: GlcNAc(a1-4)Gal(b1-4)GlcNAc
In short: as §1

[7] = target: GlcNAc(a1-4)Gal(b1-4)GlcNAc(b1-3)Gal(b1-4)Glc
In short: as §1

[8] = target: GlcNAc(a1-4)Gal(b1-4)GlcNAc(b1-3)Gal(b1-4)GlcNAc
In short: as §1

[9] = target: GlcNAc(a1-4)Gal(b1-4)GlcNAc(b1-3)Gal(b1-4)GlcNAc(b1-3)Gal(b1-4)GlcNAc
In short: as §1

[10] = target: GlcNAc(a1-4)Gal(b1-4)GlcNAc(b1-3)Gal(b1-4)[Fuc(a1-3)]GlcNAc(b1-3)Gal(b1-4)[Fuc(a1-3)]GlcNAc
In short: as §1

[11] = target: GlcNAc(a1-6)Gal(b1-4)GlcNAc
In short: as §1

[12] = target: GlcNAc(b1-2)Gal(b1-3)GalNAc
In short: as §1

[13] = target: GlcNAc(b1-2)Man(a1-3)[GlcNAc(b1-2)Man(a1-6)]Man(b1-4)GlcNAc(b1-4)GlcNAc
In short: as §1

[14] = target: GlcNAc(b1-2)Man(a1-3)[GlcNAc(b1-2)Man(a1-6)]Man(b1-4)GlcNAc(b1-4)[Fuc(a1-6)]GlcNAc
In short: as §1

[15] = target: GlcNAc(b1-2)Man(a1-3)[GlcNAc(b1-4)][GlcNAc(b1-2)Man(a1-6)]Man(b1-4)GlcNAc(b1-4)GlcNAc
In short: as §1

[16] = target: GlcNAc(b1-2)Man(a1-3)[GlcNAc(b1-4)][GlcNAc(b1-2)Man(a1-6)]Man(b1-4)GlcNAc(b1-4)[Fuc(a1-6)]GlcNAc
In short: as §1

[17] = target: GlcNAc(b1-2)[GlcNAc(b1-4)]Man(a1-3)[GlcNAc(b1-2)Man(a1-6)]Man(b1-4)GlcNAc(b1-4)GlcNAc
In short: as §1

[18] = target: GlcNAc(b1-2)[GlcNAc(b1-4)]Man(a1-3)[GlcNAc(b1-4)][GlcNAc(b1-2)Man(a1-6)]Man(b1-4)GlcNAc(b1-4)GlcNAc
In short: as §1

[19] = target: GlcNAc(b1-2)[GlcNAc(b1-4)]Man(a1-3)[GlcNAc(b1-4)][GlcNAc(b1-2)[GlcNAc(b1-6)]Man(a1-6)]Man(b1-4)GlcNAc(b1-4)GlcNAc
In short: as §1

[20] = target: GlcNAc(b1-2)[GlcNAc(b1-4)]Man(a1-3)[GlcNAc(b1-4)][GlcNAc(b1-2)[GlcNAc(b1-6)]Man(a1-6)]Man(b1-4)GlcNAc(b1-4)[Fuc(a1-6)]GlcNAc
In short: as §1

[21] = target: GlcNAc(b1-2)[GlcNAc(b1-6)]Man(a1-6)[GlcNAc(b1-2)Man(a1-3)]Man(b1-4)GlcNAc(b1-4)GlcNAc
In short: as §1

[22] = target: GlcNAc(b1-2)[GlcNAc(b1-6)]Man(a1-6)[GlcNAc(b1-2)Man(a1-3)]Man(b1-4)GlcNAc(b1-4)[Fuc(a1-6)]GlcNAc
In short: as §1

[23] = target: GlcNAc(b1-2)[GlcNAc(b1-6)]Man(a1-6)[GlcNAc(b1-4)][GlcNAc(b1-2)Man(a1-3)]Man(b1-4)GlcNAc(b1-4)GlcNAc
In short: as §1

GlcNAc(b1-3)Fuc = target: GlcNAc(b1-3)Fuc
In short: as §1

GlcNAc(b1-3)Gal = target: GlcNAc(b1-3)Gal
In short: as §1

[24] = target: GlcNAc(b1-3)Gal(b1-3)GalNAc
In short: as §1

GlcNAc(b1-3)Gal(b1-4)Glc = target: GlcNAc(b1-3)Gal(b1-4)Glc
In short: as §1

[25] = target: GlcNAc(b1-3)Gal(b1-4)GlcNAc
In short: as §1

[26] = target: GlcNAc(b1-3)Gal(b1-4)GlcNAc(b1-2)Man(a1-3)[GlcNAc(b1-3)Gal(b1-4)GlcNAc(b1-2)Man(a1-6)]Man(b1-4)GlcNAc(b1-4)GlcNAc
In short: as §1

[27] = target: GlcNAc(b1-3)Gal(b1-4)GlcNAc(b1-2)Man(a1-3)[GlcNAc(b1-3)Gal(b1-4)GlcNAc(b1-2)Man(a1-6)]Man(b1-4)GlcNAc(b1-4)[Fuc(a1-6)]GlcNAc
In short: as §1

[28] = target: GlcNAc(b1-3)Gal(b1-4)GlcNAc(b1-2)[GlcNAc(b1-3)Gal(b1-4)GlcNAc(b1-6)]Man(a1-6)[GlcNAc(b1-3)Gal(b1-4)GlcNAc(b1-2)Man(a1-3)]Man(b1-4)GlcNAc(b1-4)GlcNAc
In short: as §1

[29] = target: GlcNAc(b1-3)Gal(b1-4)GlcNAc(b1-3)Gal(b1-4)GlcNAc
In short: as §1

[30] = target: GlcNAc(b1-3)Gal(b1-4)GlcNAc(b1-3)Gal(b1-4)GlcNAc(b1-2)Man(a1-3)[GlcNAc(b1-3)Gal(b1-4)GlcNAc(b1-3)Gal(b1-4)GlcNAc(b1-2)Man(a1-6)]Man(b1-4)GlcNAc(b1-4)GlcNAc
In short: as §1

[31] = target: GlcNAc(b1-3)Gal(b1-4)GlcNAc(b1-3)Gal(b1-4)GlcNAc(b1-2)Man(a1-3)[GlcNAc(b1-3)Gal(b1-4)GlcNAc(b1-3)Gal(b1-4)GlcNAc(b1-2)Man(a1-6)]Man(b1-4)GlcNAc(b1-4)[Fuc(a1-6)]GlcNAc
In short: as §1

B1: Pbx1 (Cryptococcus neoformans) (protein)
chain: ATTKCLVSGDQDSINNALALGGEGTTVTLCPGSVHRLNSSIIFTAPSQTLTTLGNPKDRNRAMLVVDGEDLACAIRADCKQCSHAMIRSLVIDGNRPQLLRIPKGDALIEVGNAESQTVRDCKLYEPRGWSALHFREGDERQCRFGHIVDNEIGPCGEEWDDEYDSMDETKPLWGNPRADGISLACKDSIVERNVVYDATDGAIVLFGSAGSTVKNNHVYARTRVILGGINLVDYEPWDGDYTNVKVHHNHLYALGRYFKVGIVIGPASWSDDTESVVHSASVTDNEFSGGYWGYGIVVASAKNFEVLRNKVIWDGEQGVARFSGVPGSRCPKAPENGKPTAFLINRGSAKGIFQDDFVNGEVQHIICLNPDQDPPYKPWRFRDSPEAIAAKQAENPTANSAFDSRIAEALVSYQMSLLNSMDAMTQKVEHLTNPIVDDALPFVHEHERAEADKKARQEASRKEKESGNKDVDMLNVKVEELEKSGRRLKKALDGLKSDFEGLSGRLKKSADENKPIIETIFVTSQNLLLGATSQQN
- glycan array binding signal (z-score) (GlcA(b1-3)Gal): -0.024
- glycan array binding signal (z-score) (GlcA(b1-3)GlcNAc): 0.759
- glycan array binding signal (z-score) (GlcA(b1-6)Gal): -0.833
- glycan array binding signal (z-score) [1]: 0.112
- glycan array binding signal (z-score) [2]: -0.292
- glycan array binding signal (z-score) [3]: 0.052
- glycan array binding signal (z-score) [4]: 0.141
- glycan array binding signal (z-score) [5]: 0.515
- glycan array binding signal (z-score) [6]: -0.389
- glycan array binding signal (z-score) [7]: -0.204
- glycan array binding signal (z-score) [8]: -0.242
- glycan array binding signal (z-score) [9]: -0.314
- glycan array binding signal (z-score) [10]: 0.341
- glycan array binding signal (z-score) [11]: -0.066
- glycan array binding signal (z-score) [12]: 0.044
- glycan array binding signal (z-score) [13]: 0.062
- glycan array binding signal (z-score) [14]: 0.568
- glycan array binding signal (z-score) [15]: -0.301
- glycan array binding signal (z-score) [16]: -0.818
- glycan array binding signal (z-score) [17]: -0.554
- glycan array binding signal (z-score) [18]: -0.851
- glycan array binding signal (z-score) [19]: 0.401
- glycan array binding signal (z-score) [20]: -0.658
- glycan array binding signal (z-score) [21]: 0.498
- glycan array binding signal (z-score) [22]: -0.137
- glycan array binding signal (z-score) [23]: -0.848
- glycan array binding signal (z-score) (GlcNAc(b1-3)Fuc): -0.299
- glycan array binding signal (z-score) (GlcNAc(b1-3)Gal): -0.639
- glycan array binding signal (z-score) [24]: 0.011
- glycan array binding signal (z-score) (GlcNAc(b1-3)Gal(b1-4)Glc): -0.993
- glycan array binding signal (z-score) [25]: -0.699
- glycan array binding signal (z-score) [26]: 0.1
- glycan array binding signal (z-score) [27]: -0.528
- glycan array binding signal (z-score) [28]: 1.68
- glycan array binding signal (z-score) [29]: -0.38
- glycan array binding signal (z-score) [30]: 0.7
- glycan array binding signal (z-score) [31]: 0.33
